{"source": "PubChem BioAssay AID1240", "about": "(Sanford-Burnham Center for Chemical Genomics, 2008)", "note": "Among all 50,000 compounds or so, about 800 (1.6%) showed an effect of 50% or more. Some of the results follow."}
{"molecular_target": "Bcl-2-like protein 10 (Homo sapiens) (UniProt Q9HD36)", "sequence (Q9HD36 whole entry, looked up)": "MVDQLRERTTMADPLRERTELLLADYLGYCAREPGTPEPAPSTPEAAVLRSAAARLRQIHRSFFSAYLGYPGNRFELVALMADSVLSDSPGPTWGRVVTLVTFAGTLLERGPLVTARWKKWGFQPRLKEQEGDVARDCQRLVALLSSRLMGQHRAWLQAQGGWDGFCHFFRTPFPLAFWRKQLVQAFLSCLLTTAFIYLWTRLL", "experiment": "TR3 peptide-Bcl-B binding displacers, biochemical primary FP assay, phenotype converters (AID 1240);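 further: 0% = Bcl-B with tracer peptide and DMSO and 100% = tracer peptide lacking Bcl-B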", "details": "GST-Bcl-B / FITC-TR3 peptide fluorescence polarization; stronger effect = higher value; compound at 3.75 mg/L", "units": {"displacement": "%"}}
{"smiles": "O=C(Nc1cccc(F)c1)c1cc2ccccc2oc1=O", "displacement": 3}
{"smiles": "CCOc1ccc(NC(=O)CN(c2ccc(C)cc2)S(=O)(=O)c2ccc(OCC)cc2)cc1", "displacement": 15}
{"smiles": "COC(=O)CN(c1cc(C)ccc1OC)S(C)(=O)=O", "displacement": 4.4}
{"smiles": "Cc1c(Cl)cccc1N1C(=O)C2C3c4ccccc4C(C)(c4ccccc43)C2C1=O", "note": "(stereo not drawn)", "displacement": -1.8}
{"smiles": "O=C(CC1Nc2ccccc2NC1=O)Nc1ccc(F)cc1", "note": "(stereo not drawn)", "displacement": 3.4}
{"smiles": "O=C(Nc1ccccc1I)c1ccccc1[N+](=O)[O-]", "displacement": 11.4}
{"smiles": "O=C1c2ccccc2/C(=N/N=C/c2cccs2)C1C(=O)C(c1ccccc1)c1ccccc1", "note": "(stereo not drawn)", "displacement": 6.9}
{"smiles": "O=C(NCc1ccco1)/C(=C/c1cccc([N+](=O)[O-])c1)NC(=O)c1cccs1", "displacement": -7.2}
{"smiles": "Cc1cc(=O)c2cc(Br)ccc2[nH]1", "displacement": 8}
{"smiles": "O=[N+]([O-])c1ccccc1C=NN1CCN(Cc2ccccc2)CC1", "displacement": -5.2}
{"smiles": "O=C(NC(c1ccccc1)c1ccccc1)c1ccccn1", "displacement": -6.5}
{"smiles": "CCCCn1nc(CC(=O)NCCN(CC)CC)c2ccccc2c1=O", "displacement": 4.4}
{"smiles": "CCn1c2ccccc2c2cc(/C=N/n3c(C)nnc3C)ccc21", "displacement": 10}
{"smiles": "COc1ccc(/C(N)=N/OC(=O)c2ccc(C)cc2)cc1", "displacement": -20.8}
{"smiles": "CCc1ccccc1N(CC(=O)Nc1cccc(Br)c1)S(C)(=O)=O", "displacement": -1.3}
{"smiles": "Cc1ccc(-n2c(-c3ccccc3)nc3c(cnn3-c3ccccc3)c2=O)cc1", "displacement": -4.5}
{"smiles": "O=C(NN1C(=O)/C(=C/c2cc3c(cc2[N+](=O)[O-])OCO3)SC1=S)c1ccccc1Cl", "displacement": 5.9}
{"smiles": "Clc1ccc(CN2CCN(/N=C\\c3ccc(OCc4ccccc4)cc3)CC2)cc1", "displacement": -9.5}
{"smiles": "CCOc1ccccc1C1Nc2ccccc2NC2=C1C(=O)CC(c1ccc(OC)cc1)C2", "note": "(stereo not drawn)", "displacement": -1.7}
{"smiles": "COC(=O)C1=C(C)NC2=C(C(=O)c3ccccc32)C1c1ccc(-c2ccccc2[N+](=O)[O-])o1", "note": "(stereo not drawn)", "displacement": 10.5}
{"smiles": "OC(CNCC1(c2ccc3c(c2)OCCO3)CCCC1)COc1ccccc1", "note": "(stereo not drawn)", "displacement": -7.8}
{"smiles": "CCOc1ccc(S(=O)(=O)N(CC(=O)Nc2ccc(C(C)=O)cc2)c2ccc(C)cc2)cc1", "displacement": -0.2}
{"smiles": "Cc1ccc(/C=N/N=C2/NC(=O)C(CC(=O)Nc3ccccc3C(F)(F)F)S2)o1", "note": "(stereo not drawn)", "displacement": 7.4}
{"smiles": "CC(=O)CC(=O)NCc1ccccc1Cl", "displacement": -5.7}
{"smiles": "COc1ccc(NC(=O)c2cccc([N+](=O)[O-])c2C)c(OC)c1", "displacement": -3.8}
{"smiles": "Cc1ccc(NC(=O)C(Cl)Cl)c(Br)c1", "displacement": 3.1}
{"smiles": "O=C1c2cccc3c(N4CCCCC4)ccc(c23)C(=O)N1CCO", "displacement": 66.1}
{"smiles": "Cc1cc(C)n(-c2nc(N(c3ccccc3)c3ccccc3)nc(-n3nc(C)cc3C)n2)n1", "displacement": 14.3}
{"smiles": "Cc1ccc(C)c(NS(=O)(=O)c2ccc3c(c2)C(=O)c2cc(S(=O)(=O)Nc4cc(C)ccc4C)ccc2-3)c1", "displacement": 2.4}
{"smiles": "C/C(=N\\Nc1nnc(-c2ccccc2)c(-c2ccccc2)n1)c1cccc([N+](=O)[O-])c1", "displacement": 4.5}
{"smiles": "COc1ccc(/C=N/n2cnnc2)cc1CSc1ccccn1", "displacement": 15.4}
{"smiles": "CCOC(=O)NCS(=O)(=O)c1ccc(C)cc1", "displacement": 0.6}
{"smiles": "Cc1ccc(-c2nc3ccccc3[nH]2)s1", "displacement": 0.7}
{"smiles": "CC(=O)Nc1ccc(C(=O)NCc2ccccn2)cc1", "displacement": 14.1}
{"smiles": "O=C(O)c1ccccc1C(=O)N1CCN(C(=O)c2ccccc2C(=O)O)CC1", "displacement": -0.8}
{"smiles": "COc1ccc(C2=NN(c3nc(-c4ccc(C)c(C)c4)cs3)C(c3ccc(OC)cc3)C2)cc1", "note": "(stereo not drawn)", "displacement": 12.6}
{"smiles": "NC(N)=NS(=O)(=O)c1ccc(NC(=S)NC(=O)c2ccccc2)cc1", "displacement": -1.1}
{"smiles": "CC(NC(=O)c1ccccc1)c1ccc(Cl)cc1", "note": "(stereo not drawn)", "displacement": 14.5}
{"smiles": "Cc1ccc(C(NC(N)=O)c2cccc(C)c2)cc1", "note": "(stereo not drawn)", "displacement": -4.2}
{"smiles": "CCOc1cc(/C=C2/SC(=S)N(C)C2=O)cc(Br)c1OCc1ccccc1Cl", "displacement": -6.4}
{"smiles": "O=C1Nc2ccccc2/C1=N\\N1CCN(c2ccccc2)CC1", "displacement": -9.1}
{"smiles": "Cc1ccccc1NC(=O)c1c(NC(=O)C(C)(C)C)sc2c1CCCC2", "displacement": -7.3}
{"smiles": "O=C(NCc1ccccc1)NC(=O)c1ccncc1", "displacement": 1.5}
{"smiles": "COc1ccc(C2C3C(=O)N(c4ccccc4)C(=O)C3ON2c2ccccc2C)cc1", "note": "(stereo not drawn)", "displacement": 9.2}
{"smiles": "COc1ccccc1NC1=NC2(CCCC2)N=C(N)N1", "displacement": -6.4}
{"smiles": "CC(C)(CN)CNc1ccc([N+](=O)[O-])cc1Cl", "displacement": 6.6}
{"smiles": "C#CCn1cc(/C=C(/C#N)C(=O)Nc2ccc(OCC)cc2)c2ccccc21", "displacement": 5.9}
{"smiles": "COc1ccc([N+](=O)[O-])cc1-c1ccc(C(=O)O)o1", "displacement": -12.5}
{"smiles": "COc1cc(/C=C2\\C(=O)N(c3cccc(C(=O)O)c3)N=C2C)cc([N+](=O)[O-])c1O", "displacement": 19.4}
{"smiles": "CCc1cccc(NC(=O)C(C)Oc2ccc(Cl)cc2Cl)c1", "note": "(stereo not drawn)", "displacement": 0.8}
{"smiles": "CCCOC(=O)c1ccc(NC(=O)c2cc(I)ccc2Cl)cc1", "displacement": 2.5}
{"smiles": "CC(C)(C)c1ccc(C(=O)Nc2ccc3[nH]c(=O)[nH]c3c2)cc1", "displacement": 7.2}
{"smiles": "O=C1S/C(=C/c2ccc(Cl)c([N+](=O)[O-])c2)C(=O)N1c1ccccc1", "displacement": 3.6}
{"smiles": "COC(=O)c1cc(C(=O)Nc2ccc(C)c(Cl)c2)cc([N+](=O)[O-])c1", "displacement": 5.2}
{"smiles": "COc1ccc([N+](=O)[O-])cc1NC(=O)C1CCCCC1C(=O)O", "note": "(stereo not drawn)", "displacement": -9}
{"smiles": "CCOC(=O)C(CCCCOc1ccc(C)c(C)c1)C(=O)OCC", "displacement": 2.6}
{"smiles": "Cc1ccc(C)n1-c1ccc(C(=O)NN)c(Cl)c1", "displacement": -18.2}
{"smiles": "C/C(CC(=O)Nc1cccc2ccccc12)=N\\NC(=O)c1ccoc1C", "displacement": -5.3}
{"smiles": "COc1ccc(N(CC(=O)Nc2cccc(SC)c2)S(=O)(=O)c2ccccc2)cc1", "displacement": 4.9}
{"smiles": "O=C(Cc1ccc(Cl)cc1)NNC(=O)c1ccccn1", "displacement": -17.9}
{"smiles": "CC1(C)OC(=O)C2(C(=O)O1)C1C3C4CC5C6C4C1C6C2C53", "note": "(stereo not drawn)", "displacement": 7.6}
{"smiles": "CC1c2ccccc2C2(CCCC2)CN1C(=O)Cc1ccccc1", "note": "(stereo not drawn)", "displacement": -9.7}
{"smiles": "O=C1C2C3C=CC(O3)C2C(=O)N1c1ccc([N+](=O)[O-])cc1", "note": "(stereo not drawn)", "displacement": 1.6}
{"smiles": "COc1ccc2c(c1)c(=O)oc1cc(OC(C)=O)ccc12", "displacement": -3.8}
{"smiles": "Cc1ccc(OCCOc2cccc(C=O)c2)cc1C", "displacement": 10.6}
{"smiles": "COc1ccc(OC)c(S(=O)(=O)n2nnc3ccccc32)c1", "displacement": -4}
{"smiles": "O/N=C/c1cn(-c2ccccc2)nc1-c1ccc(F)cc1", "displacement": 5.2}
{"smiles": "COc1ccccc1N(CC(=O)NC(C)C)S(=O)(=O)c1ccccc1", "displacement": 3}
{"smiles": "COc1cc(/C=C2/SC(=S)N(c3ccccc3)C2=O)cc(OC)c1O", "displacement": 15}
{"smiles": "CCN(CC)C(=S)Sc1nc(Nc2cccc(C)c2)nc(Nc2cccc(C)c2)n1", "displacement": 6.1}
{"smiles": "O=c1[nH]cc(NN=c2c(=O)c3ccccc3c2=O)c(=O)[nH]1", "displacement": 1.4}
{"smiles": "CCOc1cc(C(=O)N(C)c2ccccc2)cc(OCC)c1OCC", "displacement": 11.4}
{"smiles": "CCN1C(=O)/C(=C/c2c(OC)ccc3ccccc23)C(=O)NC1=S", "displacement": -4.6}
{"smiles": "O=C(/C=C/Nc1ccccc1NS(=O)(=O)c1ccc([N+](=O)[O-])cc1)c1ccc2c(c1)OCO2", "displacement": 12.6}
{"smiles": "CCCOc1ccc(/C=C2\\C(=O)N(c3cccc(C(=O)O)c3)N=C2C)cc1OC", "displacement": 5.3}
{"smiles": "COc1cc(NC(=O)/C=C/c2ccc(C)cc2)c(OC)cc1Cl", "displacement": 10.6}
{"smiles": "CCCN(CCC)Cc1cc2ccccc2c2c1COC2", "displacement": -6.5}
{"smiles": "Cc1ccc(S(=O)(=O)Nc2ccccc2/C=N/n2cnnc2)cc1", "displacement": -0.6}
{"smiles": "O=c1c(-c2ccc(Cl)cc2)c(C(F)(F)F)oc2cc(O)ccc12", "displacement": 9.6}
{"smiles": "Cc1c(C(=O)Nc2ccc3c(c2)Cc2ccccc2-3)cccc1[N+](=O)[O-]", "displacement": -8.3}
{"smiles": "CC(C)(C)c1ccc(S(=O)(=O)N2CCCC2)cc1", "displacement": -10.9}
{"smiles": "O=C1NC(=O)N(c2ccc(Cl)cc2)C(=O)/C1=C\\c1ccc(-c2ccccc2[N+](=O)[O-])o1", "displacement": 25.1}
{"smiles": "O=C(NCc1ccco1)/C(=C/c1ccc(F)cc1)NC(=O)c1ccccc1", "displacement": -9.6}
{"smiles": "CCOC(=O)Nc1n[nH]c(NC(=O)OCC)c1[N+](=O)[O-]", "displacement": 10.5}
{"smiles": "CC(=O)c1cccc(N2C(=O)C3C(C2=O)C2(C)c4ccccc4C3(C)c3ccccc32)c1", "note": "(stereo not drawn)", "displacement": 14.1}
{"smiles": "C=CCSc1nnc2sc3ccccc3n12", "displacement": 4.1}
{"smiles": "O=C(Oc1ccc(Oc2ccccc2)cc1)c1ccc(Br)o1", "displacement": 4.4}
{"smiles": "CCOc1ccc(C=C2C(=O)NC(=O)NC2=O)cc1OCC", "displacement": 14.1}
{"smiles": "CC(=O)Nc1ccccc1NC(=O)COc1ccccc1Cl", "displacement": -6.7}
{"smiles": "O=C(Nc1ccccc1)NC1CCCC1", "displacement": -6.7}
{"smiles": "Cc1cc(OCC(=O)Nc2ccc(N3CCOCC3)c(Cl)c2)cc(C)c1Cl", "displacement": 6.8}
{"smiles": "Cn1cc(-c2nn(-c3ccccc3)cc2/C=N/NC(N)=S)c2ccccc21", "displacement": -2.2}
{"smiles": "COc1ccccc1-n1cnc2cc(NC(=O)c3ccccc3)ccc21", "displacement": 7.1}
{"smiles": "CCOC(=O)c1c(NC(=O)/C=C/c2ccc(C)o2)sc(C)c1C", "displacement": 15.4}
{"smiles": "O=C(O)CCN1C(=O)/C(=C/c2ccccc2F)SC1=S", "displacement": 8.8}
{"smiles": "COc1cccc2cc(-c3nc(-c4ccc(Cl)c(Cl)c4)cs3)c(=O)oc12", "displacement": 0.1}
{"smiles": "COc1cc(/C=C/C(=O)NCc2ccc3c(c2)OCO3)cc(OC)c1OC", "displacement": 12.9}
{"smiles": "CC(=O)C1=C(O)C(=O)N(CC2CCCO2)C1c1cccc([N+](=O)[O-])c1", "note": "(stereo not drawn)", "displacement": 0.4}
{"smiles": "CCOc1ccc(S(=O)(=O)N(CC(=O)NCC(C)C)c2ccc(C)cc2)cc1", "displacement": -1}
{"smiles": "O=C1NC(=S)N(c2ccc(Cl)cc2)C(=O)/C1=C/C=C/c1ccccc1", "displacement": -13.5}
{"smiles": "CC(C)CC(=O)N1CCN(Cc2ccc3ccccc3c2)CC1", "displacement": -9.7}
{"smiles": "Cc1cc(C(=O)c2ccccc2)c2[nH]cc(C)c2c1", "displacement": 21.1}
{"smiles": "O=C(NN1CCOCC1)c1ccccc1F", "displacement": -1.3}
{"smiles": "O=C(Nc1ccc(-c2cn3ccccc3n2)cc1)c1cccc(Br)c1", "displacement": 11.2}
{"smiles": "COc1ccccc1N1CCN(C(=O)c2cc([N+](=O)[O-])ccc2Cl)CC1", "displacement": -7.2}
{"smiles": "COc1ccc(Br)c(C=Nc2cccc3nsnc23)c1O", "displacement": 8.1}
{"smiles": "COc1ccc(C2C(C(=O)OC(C)C)=C(C)N=c3s/c(=C/c4c[nH]c5ccccc45)c(=O)n32)cc1", "note": "(stereo not drawn)", "displacement": 99.1}
{"smiles": "CC(C)C1C(C#N)(C#N)C(C#N)=C(N)C1(C)[N+](=O)[O-]", "note": "(stereo not drawn)", "displacement": -9.6}
